Laboratory results as given in PubChem BioAssay AID1671193 (National Center for Advancing Translational Sciences (NCATS), 2021).
In all, about 150,000 compounds went through this assay and about 180 (0.12%) were called active. This list was built around the results that the source calls inconclusive (neither active nor inactive); the mix of calls is not that of the screen. The call rests on the fitted dose curve; in most records, active means well fitted cell-killing curve with a large enough effect; inconclusive means small, poorly fitted or top-dose-only effect, or effect the other way; inactive means flat fitted curve, though single readings scatter. Potencies of inconclusive entries are doubtful fits and often do not repeat.

Test: GF-AFC viability counterscreen for inhibitors of alpha-synuclein gene (SNCA) expression; further: nearly all actives have a fitted effect of over 30% in size;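 on activity change, negative = cytotoxicity: 0% = DMSO-treated cells and -100% = medium-only wells without cells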
Settings: HEK-293-SNCA-luc viability, GF-AFC fluorescence, 24 h; activity change, negative = cytotoxicity: at 57.1 µM (top of the series) unless noted
Method in brief: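 HEK-293-SNCA-luc cells (1500/well) plated 24 h, then exposed 24 h to a dilution series; GF-AFC added 30 min at 37C, fluorescence 405/540 nm; normalised to medium-only and DMSO wells, Hill fit.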
Potency means the concentration at half of the fitted maximal effect; tags describe the fitted curve by direction and shape.

| Compound | Potency | activity change, negative = cytotoxicity |
| --- | --- | --- |
| COc1ccc(-c2nc3cnc(N4CCNCC4)nc3n(-c3ccc(OC)cc3)c2=O)cc1 | inconclusive: 11.2 µM [rising, partial curve] |  |
| O=C1NC(=NC2CCCCC2)C2(CCN(Cc3ccc(F)cc3)CC2)N1c1cc(F)cc(F)c1 |  | inactive: -7.39% |
| CC(C)c1ccc(NC(=O)CCNS(=O)(=O)c2cccc3nsnc23)cc1 | inconclusive: 20 µM [cytotoxic, partial curve, poor fit] |  |
| O=C(Nc1ncc(SCCN2CCCC2)s1)[C@]1(c2ccc(S(=O)(=O)C3CC3)cc2)C[C@@H]1C1CCCCC1 | inconclusive: 30.4 µM [cytotoxic, single point] |  |
| O=C(c1cc(F)ccc1Cl)N1CCN(c2cc(-c3ccc(F)cc3)[nH]n2)CC1 | inconclusive: 3.55 µM [cytotoxic, full curve] |  |
| CCCCOc1ccc(C(=O)N(Cc2nc(-c3ccc(Cl)cc3)no2)C(C)C)cc1 | inconclusive: 0.891 µM [rising, full curve] |  |
| N#C/C(=C\c1ccc(-c2ccc(C(=O)O)cc2)o1)c1nc2ccccc2[nH]1 | inconclusive: 7.08 µM [rising, single point] |  |
| CCc1nc2c(c(-c3ccc(Cl)cc3)n1)CCN(C(=O)c1ccccc1OC)CC2 | inconclusive: 0.708 µM [cytotoxic, single point] |  |
| COc1ccc(CN[C@H]2C[C@H]3C(=O)NC[C@@H](CCC(=O)N4CCCCC4)N3C2)cc1 | inconclusive: 12.6 µM [rising, partial curve] |  |
| CCN1c2cc(C(=O)Nc3cccc(C(F)(F)F)c3)ccc2C(=O)N2CCCCCC21 (stereo not given) |  | inactive: 20.9% [at 12.5 µM] |
| COc1ccc(C(=O)N[C@@H]2CCC[C@@H]2C(=O)N2CCN(c3ccc(Cl)cc3)CC2)cc1 | inconclusive: 11.2 µM [cytotoxic, partial curve, poor fit] |  |
| O=C1NCc2ccccc2CC12CCCN2Cc1ccc(OC(F)(F)F)cc1 (stereo not given) | inconclusive: 25.1 µM [cytotoxic, single point] |  |
| COc1ccc(-n2c(=O)c(C)nc3cnc(N4CCOCC4)nc32)cc1 | inconclusive: 39.8 µM [cytotoxic, single point] |  |
| CN(C)c1ccc(-c2ccc3ncnc(-n4ccnc4)c3c2)cc1 | inconclusive: 8.91 µM [cytotoxic, full curve, poor fit] |  |
| COc1ccc(-c2noc(CSc3nnc(-c4ccncc4)n3-c3ccc(C)c(C)c3)n2)cc1 | inconclusive: 0.178 µM [cytotoxic, single point] |  |
| COc1ccc(-c2nc3cnccn3c2NCCC(=O)N2CCCC(C)C2)cc1 (stereo not given) | inconclusive: 17.8 µM [rising, single point] |  |
| CCCc1nc(NCc2nc(Cc3cccs3)no2)c2cnn(C)c2n1 | inconclusive: 31.6 µM [cytotoxic, single point] |  |
| COc1ccc(C(=O)N2CCC3(CC2)Cc2ccccc2NC3=O)cc1 |  | inactive: -40.5% |
| CNC(=O)C1(C)CN(Cc2ccccc2)Cc2ccc(Nc3ccccc3)nc21 (stereo not given) | inconclusive: 28.2 µM [cytotoxic, partial curve, poor fit] |  |
| Cc1cnc(CC2CCCNC2)n1Cc1ccc(F)cc1 (stereo not given) | inconclusive: 5.01 µM [cytotoxic, single point] |  |

| Compound | Potency | activity change, negative = cytotoxicity |
| --- | --- | --- |
| O=C1NCc2ccccc2CC12CCCCN2CCCc1ccccc1 (stereo not given) |  | inactive: 1.3% |
| COC(=O)CCNC(=O)C1c2ccccc2C(=O)N(Cc2ccco2)C12CCCCC2 (stereo not given) | inconclusive: 10 µM [cytotoxic, partial curve, poor fit] |  |
| COc1cccc(C(=O)N2CCC(n3cc(-c4nc(-c5ccccc5)no4)nn3)C2)c1 (stereo not given) | inconclusive: 14.1 µM [cytotoxic, partial curve, poor fit] |  |
| COc1ccc(F)cc1-c1cccc(C(=O)NCCN[S+](=O)([O-])c2ccc(C)cc2)c1 |  | inactive: 2.2% |
| CC1CCN(C(=O)CN2CC(C)Sc3ccccc32)CC1 (stereo not given) | inconclusive: 8.91 µM [cytotoxic, full curve, poor fit] |  |
| COc1ccccc1-c1cnc2n[nH]c(-c3ccccc3)c2n1 |  | inactive: 9.25% [at 87.6 µM] |
| Cc1ccc(-c2cc3c(=O)n(CCNC(=O)c4ccc(F)c(F)c4)ccn3n2)cc1C | inconclusive: 31.6 µM [rising, partial curve, poor fit] |  |
| COc1ccccc1Nc1cc(C(=O)NCCCN(C)C2CCCCC2)c2ccccc2n1 | inconclusive: 39.8 µM [cytotoxic, single point] |  |
| COc1cc2nccc(Oc3ccc(NC(=O)C4(C(=O)Nc5ccc(F)cc5)CC4)cc3)c2cc1OC | inconclusive: 13.6 µM [cytotoxic, partial curve] |  |
| Cc1c(Cl)c(C(=O)N2CCCC(C)(Cc3ccc4c(c3)OCO4)C2)nn1C (stereo not given) |  | inactive: -11.2% |
| CCc1nc2c(c(-c3ccc(Cl)cc3)n1)CN(C(=O)CCl)CC2 | inconclusive: 20 µM [cytotoxic, partial curve] |  |
| Cc1ccc(S(=O)(=O)c2nc(-c3cccs3)oc2N2CCC(C)CC2)cc1 |  | inactive: 11.4% |
| CC1=C[C@@H](CN(C)CCC#N)[C@H](C(C)C)C[C@H]1Cc1nnc(-c2ccccc2F)o1 | inconclusive: 35.5 µM [cytotoxic, single point] |  |
| Cc1cccc(N(C)C(=O)Cn2c(-c3cccc(Cl)c3)nc(C)c(CCO)c2=O)c1 |  | inactive: -18.1% |
| Nc1nc(Nc2ccc(S(N)(=O)=O)cc2)n(C(=S)Nc2c(F)cccc2F)n1 | inconclusive: 1.68 µM [cytotoxic, full curve, poor fit] |  |
| COc1cccc(Cn2c(=O)c(-c3ccc(F)cc3)nc3cnc(N4CCNCC4)nc32)c1 | inconclusive: 28.2 µM [rising, single point] |  |
| CC1=C[C@@H](CN(C)CCc2ccccn2)[C@H](C(C)C)C[C@H]1Cc1nnc(-c2ccccc2)o1 | inconclusive: 28.2 µM [cytotoxic, single point] |  |
| COC(=O)CN1C(C(=O)c2ccccc2)=C(OC(=O)c2ccccc2)c2ccccc2S1(=O)=O | inconclusive: 17.8 µM [cytotoxic, partial curve, poor fit] |  |
| CCCN1C(C(=O)c2ccccc2)=C(OC(=O)COc2ccc(C)cc2)c2ccccc2S1(=O)=O | inconclusive: 35.5 µM [cytotoxic, single point] |  |
| Cc1ccc(-n2ncc(C(=O)NCCN3CCC(Cc4ccccc4)CC3)c2C2CCN(C(=O)OC(C)(C)C)CC2)cc1 | inconclusive: 39.8 µM [cytotoxic, single point] |  |

| Compound | Potency | activity change, negative = cytotoxicity |
| --- | --- | --- |
| O=C(C1CC1)N1CCC2(C1)C(=O)N(CCc1ccccc1)c1ccccc12 (stereo not given) | inactive |  |
| CNC(=O)c1cc(COc2nnc(Nc3ccc(Cl)cc3)c3ccoc23)ccn1 | inconclusive: 30.4 µM [cytotoxic, partial curve, poor fit] |  |
| C[S+](=O)([O-])Nc1cccc(-c2nc(N3CCOCC3)cc3c2CN(CC2CC2)C3=O)c1 |  | inactive: 10.8% |
| O=C1NC(=NC2CCCCC2)C2(CCCN(Cc3ccsc3)C2)N1c1cc(F)cc(F)c1 (stereo not given) |  | inactive: -6.17% |
| CCN(CC)C(=O)Cn1c(SCC(=O)Nc2ccc(F)cc2)nc2ccccc21 | inconclusive: 31.6 µM [cytotoxic, partial curve, poor fit] |  |
| CC(C)N1CC2CCC(C1)N2Cc1cccc(C#N)c1 | inconclusive: 5.01 µM [cytotoxic, partial curve, poor fit] |  |
| Cc1ccc(C)c(N2CCN(CCCNC(=O)c3cnn(-c4cccc(Cl)c4)c3C3CCN(C(=O)OC(C)(C)C)CC3)CC2)c1 | inconclusive: 39.8 µM [cytotoxic, single point] |  |
| N#Cc1ccc(S(=O)(=O)N2CCCCCCNC(=O)CC2)cc1 |  | inactive: -4.23% |
| O=C(Cc1cccc(C(F)(F)F)c1)N1CCCc2ncc(C(=O)N3CCCC[C@@H]3c3ccccc3)cc21 | inconclusive: 20 µM [cytotoxic, partial curve, poor fit] |  |
| CCC(C(=O)NCCc1ccc(OC)c(OC)c1OC)n1nc(C)c2sc3ccccc3c2c1=O (stereo not given) | inconclusive: 10 µM [cytotoxic, partial curve] |  |
| Cc1ccc(-n2c(=O)c3c(cnn3C)n(CC(=O)Nc3cccc(Cl)c3)c2=O)cc1 | inconclusive: 28.2 µM [cytotoxic, partial curve, poor fit] |  |
| O=C(CCn1cnc2onc(-c3ccc(F)cc3)c2c1=O)Nc1cccc(C(F)(F)F)c1 | inconclusive: 25.1 µM [cytotoxic, partial curve, poor fit] |  |
| COC(=O)CNC(=O)c1cc(-c2ccsc2)c2nncn2n1 |  | inactive: 1.64% [at 87.6 µM] |
| Cc1ccn2c(Nc3ccccc3)c(-c3c[nH]c4ccccc34)nc2c1 | inconclusive: 1.78 µM [cytotoxic, full curve, poor fit] |  |
| COc1ccccc1Nc1nn2c(=O)c3ccc(C(=O)NCCc4ccccc4)cc3nc2s1 | inconclusive: 3.55 µM [cytotoxic, full curve, poor fit] |  |
| CC(=O)Nc1cccc(-c2nnc(SCC(=O)c3cc([N+](=O)[O-])ccc3Cl)o2)c1 | inconclusive: 39.8 µM [cytotoxic, single point] |  |
| CCCCCn1c(CCCNC(=O)c2ccccc2OC)nc2ccccc21 | inconclusive: 28.2 µM [cytotoxic, single point] |  |
| COc1ccc(CN2CC3(CCN(C(=O)c4ccc(OC)c(F)c4)CC3)C2=O)cc1 |  | inactive: -0.469% |
| COc1ccc(-c2cn3c(n2)sc2cc(C(=O)NCCCN4CCN(C)CC4)ccc23)cc1 | inconclusive: 3.98 µM [cytotoxic, full curve, poor fit] |  |
| CN(C)c1cccc(C(=O)N2CCC[C@H]2c2nc(-c3ccc(F)cc3)no2)c1 | inconclusive: 2.51 µM [cytotoxic, full curve, poor fit] |  |
